This is one part of the list. The list includes weakly bound sequences.

This test has as its target T1, MBP-FoxP3dN (UniProt Q99JB6).
T1 sequence: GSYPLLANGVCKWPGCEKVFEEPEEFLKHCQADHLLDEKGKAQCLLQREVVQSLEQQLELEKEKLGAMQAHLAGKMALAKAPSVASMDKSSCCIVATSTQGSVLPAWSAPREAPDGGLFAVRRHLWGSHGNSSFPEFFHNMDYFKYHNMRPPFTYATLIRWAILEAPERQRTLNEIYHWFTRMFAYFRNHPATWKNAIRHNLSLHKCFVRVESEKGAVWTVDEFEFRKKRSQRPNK
In words: PD-seq (MBP pull-down with sequencing). Particulars: 20 mM Tris-HCl pH 7.5, 100 mM NaCl, 1.5 mM MgCl2, 0.4 uM protein, 0.1 uM dsDNA library, 30 min, room temperature, amylose pull-down; high values mean tight binding; double strand, one strand shown.
On to “GATGATTGTTCTCCCAGCTGATGAATTACGCAGATCGAGTAAACAAATTTTCCTAATCTTTCTGTTCAAGCGCCATCTAC”, for which the binding signal (RPM ratio (pull-down/input)) was found to be 0.504.

On to “GATGATTGTTCTCCCAGCTGATGAATTACAAGTCTCGAGTAAACAAATTTTCCTAATCTTTCTGTTCAAGCGCCATCTAC”, for which the binding signal (RPM ratio (pull-down/input)) turned out to be 0.573. As for “GATGATTGTTCTCCCAGCTGATGAATTGTTGGTGTCGAGTAAACAAATTTTCCTAATCTTTCTGTTCAAGCGCCATCTAC”, the binding signal (RPM ratio (pull-down/input)) stood at 4.72. “GATGATTGTTCTCCCAGCTGATGAATTAACGCCTTCGAGTAAACAAATTTTCCTAATCTTTCTGTTCAAGCGCCATCTAC”: the binding signal (RPM ratio (pull-down/input)) was 2.79. In the case of “GATGATTGTTCTCCCAGCTGATGAATTCGGTTTCTCGAGTAAACAAATTTTCCTAATCTTTCTGTTCAAGCGCCATCTAC”, the binding signal (RPM ratio (pull-down/input)) is 1.31. As for “GATGATTGTTCTCCCAGCTGATGAATTGATTAGGTCGAGTAAACAAATTTTCCTAATCTTTCTGTTCAAGCGCCATCTAC”, the figure is 0.663; as for “GATGATTGTTCTCCCAGCTGATGAATTTACATCTTCGAGTAAACAAATTTTCCTAATCTTTCTGTTCAAGCGCCATCTAC”, 0.678; as for “GATGATTGTTCTCCCAGCTGATGAATTTTTGCGGTCGAGTAAACAAATTTTCCTAATCTTTCTGTTCAAGCGCCATCTAC”, 0.357. Under “GATGATTGTTCTCCCAGCTGATGAATTACGACTATCGAGTAAACAAATTTTCCTAATCTTTCTGTTCAAGCGCCATCTAC” stands 0.727; under “GATGATTGTTCTCCCAGCTGATGAATTGCACTGTTCGAGTAAACAAATTTTCCTAATCTTTCTGTTCAAGCGCCATCTAC”, 1.07.

Regarding “GATGATTGTTCTCCCAGCTGATGAATTCCCGGGGTCGAGTAAACAAATTTTCCTAATCTTTCTGTTCAAGCGCCATCTAC”, the binding signal (RPM ratio (pull-down/input)) came to 0.178. Consider “GATGATTGTTCTCCCAGCTGATGAATTGAGATAATCGAGTAAACAAATTTTCCTAATCTTTCTGTTCAAGCGCCATCTAC”, for which the binding signal (RPM ratio (pull-down/input)) stood at 0.341. Under “GATGATTGTTCTCCCAGCTGATGAATTTCTTGCGTCGAGTAAACAAATTTTCCTAATCTTTCTGTTCAAGCGCCATCTAC” stands 0.535. For the sequence “GATGATTGTTCTCCCAGCTGATGAATTTTCTAGATCGAGTAAACAAATTTTCCTAATCTTTCTGTTCAAGCGCCATCTAC”, the binding signal (RPM ratio (pull-down/input)) came to 0.194. Under “GATGATTGTTCTCCCAGCTGATGAATTCGTAGGTTCGAGTAAACAAATTTTCCTAATCTTTCTGTTCAAGCGCCATCTAC” stands 0.632. Take “GATGATTGTTCTCCCAGCTGATGAATTTGCAAAGTCGAGTAAACAAATTTTCCTAATCTTTCTGTTCAAGCGCCATCTAC”: the binding signal (RPM ratio (pull-down/input)) was found to be 0.313.

Turning to “GATGATTGTTCTCCCAGCTGATGAATTCGGTTGGTCGAGTAAACAAATTTTCCTAATCTTTCTGTTCAAGCGCCATCTAC”, the binding signal (RPM ratio (pull-down/input)) is 1.95. Under “GATGATTGTTCTCCCAGCTGATGAATTGTATGCCTCGAGTAAACAAATTTTCCTAATCTTTCTGTTCAAGCGCCATCTAC” stands 2.07.

“GATGATTGTTCTCCCAGCTGATGAATTGTCATTATCGAGTAAACAAATTTTCCTAATCTTTCTGTTCAAGCGCCATCTAC”: the binding signal (RPM ratio (pull-down/input)) was determined as 1.22. As to “GATGATTGTTCTCCCAGCTGATGAATTACGCCTATCGAGTAAACAAATTTTCCTAATCTTTCTGTTCAAGCGCCATCTAC”, the binding signal (RPM ratio (pull-down/input)) turned out to be 2.64. Under “GATGATTGTTCTCCCAGCTGATGAATTATACCTGTCGAGTAAACAAATTTTCCTAATCTTTCTGTTCAAGCGCCATCTAC” stands 0.42; under “GATGATTGTTCTCCCAGCTGATGAATTCCTATACTCGAGTAAACAAATTTTCCTAATCTTTCTGTTCAAGCGCCATCTAC”, 0.361; under “GATGATTGTTCTCCCAGCTGATGAATTACGCGCGTCGAGTAAACAAATTTTCCTAATCTTTCTGTTCAAGCGCCATCTAC”, 1.87. Under “GATGATTGTTCTCCCAGCTGATGAATTATTTAAGTCGAGTAAACAAATTTTCCTAATCTTTCTGTTCAAGCGCCATCTAC” stands 0.317; under “GATGATTGTTCTCCCAGCTGATGAATTGATTCATTCGAGTAAACAAATTTTCCTAATCTTTCTGTTCAAGCGCCATCTAC”, 0.392.

As to “GATGATTGTTCTCCCAGCTGATGAATTCAAGCATTCGAGTAAACAAATTTTCCTAATCTTTCTGTTCAAGCGCCATCTAC”, the binding signal (RPM ratio (pull-down/input)) came out at 4.27.

For the sequence “GATGATTGTTCTCCCAGCTGATGAATTTCATTTGTCGAGTAAACAAATTTTCCTAATCTTTCTGTTCAAGCGCCATCTAC”, the binding signal (RPM ratio (pull-down/input)) turned out to be 2.23.

Consider “GATGATTGTTCTCCCAGCTGATGAATTCGCTAAGTCGAGTAAACAAATTTTCCTAATCTTTCTGTTCAAGCGCCATCTAC”, for which the binding signal (RPM ratio (pull-down/input)) is 0.247. As for “GATGATTGTTCTCCCAGCTGATGAATTTTTGGGATCGAGTAAACAAATTTTCCTAATCTTTCTGTTCAAGCGCCATCTAC”, the figure is 0.223; as for “GATGATTGTTCTCCCAGCTGATGAATTGGGTATGTCGAGTAAACAAATTTTCCTAATCTTTCTGTTCAAGCGCCATCTAC”, 1.31; as for “GATGATTGTTCTCCCAGCTGATGAATTAATTGTATCGAGTAAACAAATTTTCCTAATCTTTCTGTTCAAGCGCCATCTAC”, 2.09. Under “GATGATTGTTCTCCCAGCTGATGAATTTGCACGCTCGAGTAAACAAATTTTCCTAATCTTTCTGTTCAAGCGCCATCTAC” stands 0.749; under “GATGATTGTTCTCCCAGCTGATGAATTGTCTCCCTCGAGTAAACAAATTTTCCTAATCTTTCTGTTCAAGCGCCATCTAC”, 0.385. As for “GATGATTGTTCTCCCAGCTGATGAATTGTCGAGTTCGAGTAAACAAATTTTCCTAATCTTTCTGTTCAAGCGCCATCTAC”, the figure is 0.479. On to “GATGATTGTTCTCCCAGCTGATGAATTACGAGACTCGAGTAAACAAATTTTCCTAATCTTTCTGTTCAAGCGCCATCTAC”, for which the binding signal (RPM ratio (pull-down/input)) was 0.531. Regarding “GATGATTGTTCTCCCAGCTGATGAATTGGTAAAGTCGAGTAAACAAATTTTCCTAATCTTTCTGTTCAAGCGCCATCTAC”, the binding signal (RPM ratio (pull-down/input)) came out at 0.275.

For the sequence “GATGATTGTTCTCCCAGCTGATGAATTCCAACAGTCGAGTAAACAAATTTTCCTAATCTTTCTGTTCAAGCGCCATCTAC”, the binding signal (RPM ratio (pull-down/input)) is 0.296. Consider “GATGATTGTTCTCCCAGCTGATGAATTCAGCTATTCGAGTAAACAAATTTTCCTAATCTTTCTGTTCAAGCGCCATCTAC”, for which the binding signal (RPM ratio (pull-down/input)) is 1.78. As for “GATGATTGTTCTCCCAGCTGATGAATTCTACGATTCGAGTAAACAAATTTTCCTAATCTTTCTGTTCAAGCGCCATCTAC”, the figure is 0.257; as for “GATGATTGTTCTCCCAGCTGATGAATTAAAGACATCGAGTAAACAAATTTTCCTAATCTTTCTGTTCAAGCGCCATCTAC”, 0.385.

The values are drawn from PMC12820563.
